Assay results reported in PubChem BioAssay AID651820 (National Center for Advancing Translational Sciences (NCATS), 2012).
Screen size: about 340,000 compounds; about 12,000 (3.5%) were called active. Inconclusive means that the source gave no clear call. Such entries were picked first, then a sample of the others. Calls follow the shape of the dose curve; as a rule, active = well fitted inhibition curve with a large enough effect; inconclusive = small, poorly fitted or top-dose-only effect, or another doubt; inactive = no such curve, though single readings can be large or run the other way. No potency is given beside an inconclusive call; the fits are too rough.

experiment: qHTS Assay for Inhibitors of Hepatitis C Virus (HCV); settings: Huh7.5.1 HCVcc-Cre (HCVcc is cell-culture hepatitis C virus) infection, luciferase reporter, 44 h; series mostly up to 41.8 µM
Outline: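 1,000 cells/well; 4 h culture; + compound; + HCVcc-Cre (~0.5 moi); 44 h; luciferase substrate, RT 15 min; read 15 sec.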
Potency is read from the fitted curve at half-maximal effect; tags tell the direction and shape of the fitted curve.

| SMILES | Potency |
| --- | --- |
| Cc1cc(C)c([N+](=O)[O-])cc1-c1ccc(/C=N/c2c(-c3ccco3)nc3ccccn23)o1 | inactive |
| COc1ccc(CCNC(=O)c2ccc3ccccc3n2)cc1OC | inconclusive [inhibitor, single point] |
| COC(=O)c1cc2n3ccccc3c(C)c(-c3ccccc3)c-2c1C(=O)OC | inconclusive [inhibitor, partial curve] |
| FC(F)(F)c1cccc(NC(=S)N(CCCN2CCCC2)Cc2cccn2Cc2ccc(Cl)cc2)c1 | inactive |
| CCOC(=O)c1cccc(NC(=O)C2(S(=O)(=O)c3ccc(C)cc3)CC2)c1 | inconclusive [inhibitor, partial curve] |
| CSCc1cc(N(C)C)nc(SCc2ccc(Cl)c(Cl)c2)n1 | inconclusive [inhibitor, single point] |
| CCOc1ccc(NC(=O)C2CCN(S(=O)(=O)c3ccc4c(c3)CC(C)N4C(C)=O)CC2)cc1 (stereo not given) | inconclusive [inhibitor, partial curve] |
| COCCn1c(-c2ccc(-c3ccccc3Cl)o2)nc2c1c(=O)[nH]c(=O)n2CC(C)C | inactive |
| O=C(Nc1ccccc1-c1ccccc1)c1cccc([N+](=O)[O-])c1 | inconclusive [inhibitor, partial curve] |
| O=C(Nc1ccc[n+](CC(=O)c2cccc3ccccc23)c1)c1ccccc1 | inconclusive [inhibitor, single point] |
| O=C1Nc2ccccc2Nc2ccc([N+](=O)[O-])cc21 | inactive |
| Cc1c(C)n(CC(O)CN2CCCCC2)c2ccccc12 (stereo not given) | inconclusive [inhibitor, single point] |
| O=C(c1cc(S(=O)(=O)N2CCN(c3ccccc3)CC2)ccc1Cl)N1CCCCCCC1 | inconclusive [inhibitor, single point] |
| O=C(NN=C1CCCCCC1)c1c[nH]c2ccccc12 | inactive |
| C/[N+]([O-])=C\c1cccc(OCCN2CCN(c3ncc(C(F)(F)F)cc3Cl)CC2)c1 | active: 25.1 µM |
| C/C(=N/NS(=O)(=O)c1ccc(C)cc1)c1cccc(NC(=O)c2cccc(Cl)c2)c1 | inconclusive [inhibitor, single point] |
| N#Cc1ccc(C(=O)Nc2cccc(NC(=O)c3ccco3)c2)c(F)c1 | inconclusive [inhibitor, single point] |
| COc1ccccc1C(=O)CSc1nccn1C | inactive |
| Cc1ccc(-c2csc(Cc3nc(-c4ccc5c(c4)CCC(=O)N5)cs3)n2)cc1 | inconclusive [inhibitor, single point] |
| Cc1cc(C)cc(C(=O)NC(=S)Nc2ccc3c(c2)OCCO3)c1 | inconclusive [inhibitor, partial curve] |

| SMILES | Potency |
| --- | --- |
| O=C1N[C@@H](Cc2ccccc2)COC(=O)[C@H](Cc2ccc(F)cc2)C/C=C\C[C@@H]1CC(=O)N(CCO)Cc1ccccc1 | inconclusive [inhibitor, single point] |
| CC(C)CNC(=O)c1cccc(NC(=O)CCc2ccccc2)c1 | inconclusive [inhibitor, single point] |
| CCOc1ccc(C(=O)/C=C/c2ccc(OC)c(OC)c2)cc1 | inconclusive [inhibitor, partial curve] |
| COc1ccc(/C=N/Nc2snc(SC)c2C#N)cc1OC | inconclusive [inhibitor, single point] |
| O=C(N/N=C/c1ccccc1C(=O)O)c1cccc(S(=O)(=O)Nc2cc(Cl)ccc2Cl)c1 | inactive |
| O=C(NCC(=O)N1CCN(C(=O)c2ccccc2)CC1)c1ccc(Cl)cc1Cl | inconclusive [inhibitor, single point] |
| COc1ccc(-c2onc3ccc(Br)cc23)cc1 | inconclusive [inhibitor, single point] |
| CCOC(=O)c1sc(Nc2nc(OC)cc(OC)n2)nc1C | inconclusive [inhibitor, full curve] |
| CC(c1nnnn1C(C)(C)C)N(Cc1cccnc1)Cc1ccccc1Cl (stereo not given) | inconclusive [inhibitor, single point] |
| O=S(=O)(NC1CCCCC1N1CCN(c2ccccc2F)CC1)c1ccc(Cl)cc1 (stereo not given) | inconclusive [inhibitor, single point] |
| O=C(c1cc(F)ccc1F)C1CCCN(C(=O)c2ccc(F)cc2Cl)C1 (stereo not given) | inconclusive [inhibitor, single point] |
| O=c1cc(N2CCc3ccccc3C2)[nH]c(=O)n1C1CCCCC1 | inconclusive [inhibitor, single point] |
| O=C(COC(=O)c1ccccc1C(=O)N1CCN(c2ccccc2)CC1)Nc1ccc(F)cc1 | inconclusive [inhibitor, single point] |
| Cc1ccc(-c2c[n+](CC(=O)Nc3nc(-c4ccc(F)cc4)cs3)c3n2CCC3)cc1 | inconclusive [inhibitor, partial curve] |
| C/C(=N/NC(=O)c1cccs1)c1ccc(NC(=O)COc2ccc(Cl)cc2)cc1 | inconclusive [inhibitor, full curve] |
| O=S1(=O)CCO[C@H]2Cc3ccccc3[C@H]2N1Cc1ccc(Cl)cc1 | inconclusive [inhibitor, partial curve] |
| Cc1ccc2c(CC(=O)Nc3cccc(S(=O)(=O)N4CCOCC4)c3)coc2c1 | inconclusive [inhibitor, single point] |
| Cc1nc2ncnn2c(N2CCN(C(c3ccccc3)c3ccccc3)CC2)c1C | inconclusive [inhibitor, single point] |
| CN1CCN(C(=O)CCN2C(=O)/C(=C\c3ccc(F)cc3)SC2=S)CC1 | inconclusive [inhibitor, single point] |
| Cc1ccc2nc(-c3ccccn3)cc(C(=O)Nc3ccc(S(=O)(=O)N4CCOCC4)cc3)c2c1 | inconclusive [inhibitor, partial curve, poor fit] |
